Data on 73 sequences can be found in paper PMC10726135.

This is one part of the list. At the low end of the ranking the order means little. Measured with an extract: partners may take part in the binding.

This experiment addresses T1, HNF4alpha2 (COS-7 nuclear extract) (UniProt P41235).
T1 sequence: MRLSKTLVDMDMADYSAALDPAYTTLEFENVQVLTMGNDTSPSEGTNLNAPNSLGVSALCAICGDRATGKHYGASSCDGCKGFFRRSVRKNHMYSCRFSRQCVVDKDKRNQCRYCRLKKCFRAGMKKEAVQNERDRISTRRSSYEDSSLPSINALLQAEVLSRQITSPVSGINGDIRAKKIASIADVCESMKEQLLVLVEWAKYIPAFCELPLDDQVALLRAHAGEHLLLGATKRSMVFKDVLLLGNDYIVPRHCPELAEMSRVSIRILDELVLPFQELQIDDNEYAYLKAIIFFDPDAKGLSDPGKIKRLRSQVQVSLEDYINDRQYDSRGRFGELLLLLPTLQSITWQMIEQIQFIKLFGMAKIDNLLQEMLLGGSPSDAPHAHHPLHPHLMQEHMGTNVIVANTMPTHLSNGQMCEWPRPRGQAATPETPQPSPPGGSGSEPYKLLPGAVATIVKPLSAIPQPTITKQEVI
Kind of experiment: protein-binding microarray. Particulars: COS-7 nuclear extract on double-stranded Agilent 4x180k PBM; binding buffer, salt, pH and temperature not given; high values mean tight binding; double strand, one strand shown; sequences stand for … in …GCCTAGGGAGATTAGAGTATCGGTCGA
Regarding CTCCTCATTCCTTTCTAATCTCAAAGTGTC, the binding signal (log2 normalized intensity) is 1.98. As for GTCAACAAGATTCCTTGAGCATTCCAAAAA, the figure is -0.715.

On to AAGAGGCCCATCTCACACATAATGATACCA, for which the binding signal (log2 normalized intensity) was -0.824. Turning to TTGGGATCAGACACGTGGGACCATGAGTAC, the binding signal (log2 normalized intensity) stood at 1.41. Take GACCAGGTTGTGAGGGAGGGCACAGGCAAC: the binding signal (log2 normalized intensity) is -0.298.

CAGTTGGCCACCTTTGGCCGAAACTCAGTG: the binding signal (log2 normalized intensity) turned out to be 0.83.

Take ATAGCCACCAGGGCCTCTGAGATAAGGGTT: the binding signal (log2 normalized intensity) is -1.17. Take TAAATCTCTAGTCCCAGCCTAGGCCTTTGT: the binding signal (log2 normalized intensity) was determined as 0.149. As for GAGGGGGCGGGGAGAGGGAAGAGTCTTCTC, the figure is -1.24; as for CGTGAGTATTTTTTCAACATATACTTTGAA, 1.53. Then AATTGAACTGAAATATGAACTGCTGCCTAC, with -1.16; and TGGAACTGAAGGCAGGAAAGGGCCTCTCAG, with -1.18; and GTGAAATAGGAGGATTTTATTCAGGTGGCC, with 0.161. As for CTCCCCTTGTCTGATAAGATTCAGAACCCA, the figure is 1.54; as for ATGTCATTTAAGACGAGTGGTTTGAGGTCA, 2.57; as for ATGATTGCTCTCTACTTGGTGGGAGGAGGG, -1.08. As for AGGGCACTGGGGATAGAATCAAAGGTCAGG, the binding signal (log2 normalized intensity) was 3.66.

Take CACAAATCTCCACAAACATACAACCATCAA: the binding signal (log2 normalized intensity) was -1.22.

As for AGATAATGGATTGGGGGCCATGTCTCAGCC, the binding signal (log2 normalized intensity) was -0.499.

Take GCAAAGACTCAAATCCAAGCTGGCTGGCTT: the binding signal (log2 normalized intensity) is -1.14.

For the sequence CAGCTGGAAGGTATTGTCATTATTCCAGCT, the binding signal (log2 normalized intensity) is -1.2. Then AACCCCTATGTTTAATGTATAAACCCTGAG, with 0.6; and AGGCCAGGGGCACTCTCTGTTATCAGACAC, with -0.8.

For the sequence ACATCCCACTCAAAGGTCAGGGCTAGGCTG, the binding signal (log2 normalized intensity) is -1.02. Then GAAGAGATCAAAGTTCTGTTTGTATAACCC, with 2.12; and CCCGCCTTTGACACAGGCGACCTTCGCTCG, with 5.17.

TTGGACTTCAGCCCAGGCTGATTATTCGTT: the binding signal (log2 normalized intensity) worked out at 1.94. As for GACAAACAATAGATAGGACAGTGGTCTTTA, the binding signal (log2 normalized intensity) was -0.166. Consider TTGCCCACCAATGATCAAAGGTTAGTCTTA, for which the binding signal (log2 normalized intensity) stood at 3.63. Then GGGTTAGGGTTAGGGTAGGGTTAGGGTTAG, with 0.856. CCATGAGTACCAGGTCAAAAGTTCAAACTT: the binding signal (log2 normalized intensity) was 3.8.

On to ACGTGTTTCCAGGCAAGGAATTTGGAATTC, for which the binding signal (log2 normalized intensity) was found to be 1.56.

TATAGGTGTTTATAAAGTTGGGAAAAGTAA: the binding signal (log2 normalized intensity) came out at 0.955. Take TCCTTGTACCTGCGACTGAGCCCTAAGAAA: the binding signal (log2 normalized intensity) is -1.1.

Turning to GTCAAACAAAAGAAAATGTGCCCTTTGGAC, the binding signal (log2 normalized intensity) was determined as 6.61. For CAACGGCTCTGCATATGCCAACAGGTGCTC, the binding signal (log2 normalized intensity) was -0.653.

For the sequence ACCGGTCTTTCCACTTGGGCTTCCTCATCT, the binding signal (log2 normalized intensity) is -1.1. As for TCAGCCGGGGAAGGTGCAGGGCTACTGTGG, the figure is -1.08; as for TCTCAGTAGACTAACGTATGGACTTTCTGA, 2.9. As for GAATGTGTGCTGGCCTGGTTCCTTCTCAGT, the figure is 1.06; as for TAATCTCCAAGTAACTGAAACTACAAAAGC, -1.18. Then GGATTGATTAGATAACATCTGGACTTTACA, with 3.57.

For the sequence TATCAGTAGGTACGTTTGTGATACACCTTG, the binding signal (log2 normalized intensity) was found to be 1.69. Take CTACTATGTGCCAGACACTGCTCTAGGCAT: the binding signal (log2 normalized intensity) was -1.05. For the sequence AACTTTGTAACTAACAACTGACCTTGCAGG, the binding signal (log2 normalized intensity) was determined as 1.43. Regarding ATTCTTTCCCCTCCCTTCCACCTTTGCCCT, the binding signal (log2 normalized intensity) turned out to be 6.19. Then TGTCAGGAACAACTTCGGGAATCTGACCTT, with 3.77. For ATCAGGAGACTGGAGAGACCAAAGGGTGAA, the binding signal (log2 normalized intensity) came to 0.37. Consider CCTCTGATTTGCTGATCCTATTTACCTGCC, for which the binding signal (log2 normalized intensity) was 0.37.

As for CAATGACCTTTGACCCTTCTCTGGGAGAAA, the binding signal (log2 normalized intensity) worked out at 8.21. As to GTAGAGACCTGTCTTCCTGGTGACCTTTGT, the binding signal (log2 normalized intensity) amounted to 7.11. For the sequence ATGCTTCCTACACGTGCTCTACTAGGCAGT, the binding signal (log2 normalized intensity) is -1.06. On to ACAAAGGTCACACTCCTGTGCAAACATCTG, for which the binding signal (log2 normalized intensity) is 0.545. As to GTTCTGTACTTTGGAACCTGAAAGAGCAAC, the binding signal (log2 normalized intensity) came out at 3.87. As for GCATATTTAACTTGGCAAGGGGAGGCACTC, the figure is -0.835; as for TTATCATGTGGTATTAACATGTAAATATGA, 1.69.

As for ATTGTAATCTTCAGCTGCCTTTTGCCAGGC, the binding signal (log2 normalized intensity) is -0.0437. Then GCACAGCCTCCCTGTGGGGGAGGTGCAGAG, with -1.14; and GTCAGCCCTGGTCCAGGCCATGCAACAGCC, with -1.22.

In the case of GTTTTCTCTGAGTTTTGAGTGTGTTTCTTG, the binding signal (log2 normalized intensity) worked out at 1.53.

On to CTAAAAACATTGTGGAGCTCATGTAAGGTC, for which the binding signal (log2 normalized intensity) is 1.62.

For GTTCACCAGGAAGCAAGACAATGCACTCAT, the binding signal (log2 normalized intensity) is -1.17. Then TTGGTGGGAGGAGGGGGGAGGGTCGGCAAC, with -1.13. Then CCCTGGGGTAATAAAAGTGTACAAAGCACA, with -0.091; and CAGGACCACACATTCCATTACTGCAGAGGC, with -1.12. As for AGATACTGAACCTTGCACTATTGACCCAGT, the binding signal (log2 normalized intensity) stood at 3.62. For the sequence TTAATGAAATACAGTAGACTTTTTTTTTCT, the binding signal (log2 normalized intensity) was -0.908. Then AAATGCCAATAGTGGCTTTGTTGATAACAA, with -1.23; and AGGCAACAATGCCTTGTGTACTGAGCAGGG, with -0.682.

Take AGGGAGGAGGGGAAGAAAGGAATGTGCCTG: the binding signal (log2 normalized intensity) was -1.26. For CTGGGCCTTAAAGCATGACAAAATAACGAA, the binding signal (log2 normalized intensity) is -1.04. Then AAACATCAAGACAGGTGAGAGAGCTGCATT, with -0.923.

Turning to CTTCTTTGCTTAAGCATAGCAAAAGTGACC, the binding signal (log2 normalized intensity) came to 2.7.
